# Laboratory results as given in publication PMC4336329 (PLoS ONE, 2015).
# About 2,200 (0.71%) of roughly 310,000 compounds showed an effect of 50% or more. The effect is printed as a negative number. This is one part of the list.
# Molecular target: human ether-à-go-go-related gene (hERG) potassium channel (human, UniProt Q12809)
# Assay: primary screen, population patch clamp on CHO cells stably expressing hERG
# Chain of human ether-à-go-go-related gene (hERG) potassium channel (Q12809 whole entry, looked up): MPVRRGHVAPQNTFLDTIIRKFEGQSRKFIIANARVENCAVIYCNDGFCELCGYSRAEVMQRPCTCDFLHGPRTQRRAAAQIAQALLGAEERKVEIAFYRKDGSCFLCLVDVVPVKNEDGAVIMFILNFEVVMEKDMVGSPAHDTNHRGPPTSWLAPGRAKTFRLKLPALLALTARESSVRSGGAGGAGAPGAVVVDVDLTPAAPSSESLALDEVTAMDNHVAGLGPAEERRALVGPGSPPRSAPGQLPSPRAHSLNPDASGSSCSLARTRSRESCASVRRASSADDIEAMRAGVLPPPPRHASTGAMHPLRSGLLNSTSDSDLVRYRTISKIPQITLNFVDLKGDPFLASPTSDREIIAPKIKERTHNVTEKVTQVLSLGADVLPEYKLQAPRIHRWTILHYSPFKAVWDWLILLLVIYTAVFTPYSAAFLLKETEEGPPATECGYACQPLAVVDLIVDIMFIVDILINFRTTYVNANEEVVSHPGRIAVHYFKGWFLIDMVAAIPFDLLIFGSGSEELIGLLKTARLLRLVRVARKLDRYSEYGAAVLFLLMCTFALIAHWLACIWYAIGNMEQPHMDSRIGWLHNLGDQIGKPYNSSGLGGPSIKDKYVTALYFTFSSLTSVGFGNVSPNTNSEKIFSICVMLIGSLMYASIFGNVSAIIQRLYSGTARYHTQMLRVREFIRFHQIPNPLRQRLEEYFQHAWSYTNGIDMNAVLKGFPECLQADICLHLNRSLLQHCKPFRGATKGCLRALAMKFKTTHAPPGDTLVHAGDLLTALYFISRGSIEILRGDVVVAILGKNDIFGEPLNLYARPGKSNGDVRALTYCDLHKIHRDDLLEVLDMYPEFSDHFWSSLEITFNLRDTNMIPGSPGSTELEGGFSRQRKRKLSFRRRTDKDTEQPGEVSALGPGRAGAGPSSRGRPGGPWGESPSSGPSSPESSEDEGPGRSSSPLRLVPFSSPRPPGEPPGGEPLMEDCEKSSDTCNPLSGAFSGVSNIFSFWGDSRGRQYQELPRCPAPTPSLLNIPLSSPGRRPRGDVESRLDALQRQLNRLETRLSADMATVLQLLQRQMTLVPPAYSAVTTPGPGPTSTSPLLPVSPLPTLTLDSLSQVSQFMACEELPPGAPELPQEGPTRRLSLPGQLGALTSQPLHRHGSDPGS
row,Structure (SMILES),"hERG current change (%, negative = inhibition) at 1uM [%]"
1,Cc1c(N=Cc2ccncc2)c(=O)n(-c2ccccc2)n1C,-15.6
2,CCCCN(C)C(=O)c1oc2ccc(S(=O)(=O)N3CCCCCC3)cc2c1C,7.73
3,C=CCn1c(SCC(=O)NC(=O)NCc2ccco2)nc2sc(C)c(C)c2c1=O,6.36
4,O=C(COc1ncnc2sccc12)Nc1ccc2c(c1)OCCO2,14.5
5,O=C(O)CCc1ccc(-c2ccc(Cl)cc2)n1CCC(=O)O,11.6
6,CC1CCCC(NC(=O)CCNC(=O)c2ccc(Cl)cc2)C1C (stereo not shown),1.39
7,Cc1onc(-c2c(Cl)cccc2Cl)c1C(=O)NC1C(=O)N2C1SC(C)(C)C2C(=O)[O-].[Na+] (stereo not shown),9.43
8,COc1ccc(CN(CCC(c2ccccc2)C2CCOC(C)(C)C2)C(C)=O)cc1 (stereo not shown),2.09
9,COc1ccc(N2CC(O)=C(c3nc(-c4ccccc4)cs3)C2=N)cc1,9.65
10,CC(C)(C)c1ccccc1OCC(=O)Nc1ncn[nH]1,16.2
11,Cc1cc(=O)n2[nH]c(NCc3ccccc3F)nc2n1,5.99
12,C=C(C)COc1ccc(-c2nc(N)nc(C)c2Oc2ccccc2OC)c(O)c1,14
13,O=C(c1ccco1)N1CCN(C(=O)c2cc3sccc3n2Cc2ccccc2)CC1,-11
14,CCCCn1c(N)c(N(CCOC)C(=O)COc2c(C)cccc2C)c(=O)[nH]c1=O,6.75
15,Cn1c(COc2ccc3ccccc3c2)nnc1SCC(=O)OC1CCCCC1,10.1
16,CN(C)c1ccc(NC(=O)Cn2c(=O)n(Cc3ccccc3)c(=O)c3ccccc32)cc1,4.7
17,CCOCCCN(C)C1CCN(C(=O)c2oc3ccccc3c2NC(=O)c2cccc([N+](=O)[O-])c2)CC1,-86
18,CCC1C(C#N)=C(N)OC2=C1C(=O)CC(C)(C)C2 (stereo not shown),9.61
19,Cc1ccc(N(C)S(=O)(=O)c2csc(C(N)=O)c2)cc1C,2.78
20,O=[N+]([O-])c1ccc(N2CCN(c3ccccc3F)CC2)nc1,11.6
21,OCCOCCOc1cccc2[nH]ccc12,7.87
22,CC1CCN(S(=O)(=O)c2ccc3c(c2)CC(C)N3C(=O)C2CCC2)CC1 (stereo not shown),13.8

row,Structure (SMILES),"hERG current change (%, negative = inhibition) at 1uM [%]"
1,COc1ccc(CNc2nc3nc(C)cc(C)n3n2)cc1OC,-4.82
2,C=CCN(c1ccc(F)cc1)S(=O)(=O)c1cc(C(=O)OCC(=O)N(C)C2CCS(=O)(=O)C2)ccc1Cl (stereo not shown),-3.64
3,Cn1c(=O)cc(NCc2ccccc2)[nH]c1=O,13.1
4,O=C(NNc1ccccc1Br)C(O)(c1cccc(C(F)(F)F)c1)c1cccc(C(F)(F)F)c1,4.11
5,COC(=O)c1[nH]c2ccccc2c1NS(=O)(=O)c1ccc(F)c(C)c1,-1
6,CCN(CC(O)COc1ccc(OCC(O)CN(CC)C2CCCCC2)cc1)C1CCCCC1 (stereo not shown),22.2
7,Cc1c(/C(O)=C2/C(=O)C(=O)N(Cc3cccnc3)C2c2ccccn2)cnn1-c1ccccc1 (stereo not shown),6.91
8,CCN(CC)c1ccc2cc(S(=O)(=O)c3ccc(Cl)cc3)c(=O)oc2c1,-3.3
9,CCOC(=O)N1CCN(C2CC(=O)N(c3ccccc3)C2=O)CC1 (stereo not shown),12.8
10,CC12CCC(C(=O)NCc3ccc4c(c3)OCO4)(CC1=O)C2(C)C (stereo not shown),-9.45
11,COc1ccc(/C=C2/NC(=O)CNC2=O)cc1,14.3
12,O=C(Nc1cccc(F)c1)c1cc(S(=O)(=O)N2CCOCC2)ccc1N1CCCC1,12.2
13,CN(C)c1ccc(N2C(=NC(=O)C3CCCO3)SC3CS(=O)(=O)CC32)cc1 (stereo not shown),11.8
14,COC(=O)C(CC(C(=O)OC)C(=O)OC)C(=O)OC,10.3
15,COc1cnn(-c2cccc(Cl)c2)c(=O)c1Cl,12.9
16,COc1ccc(C2CC(c3cccs3)=NN2C(=O)CSc2nc3ccccc3o2)cc1 (stereo not shown),17.7
17,CN1CCN(C(=O)CCc2ccc(S(=O)(=O)NC3CCCCC3)cc2)CC1,17.6
18,CCc1cccc(NS(=O)(=O)c2ccc3c(c2)NC(=O)CC(=O)N3)c1,21.6
19,CSc1nccc(NC(=O)c2ccc(C(C)(C)C)cc2)n1,10
20,Cc1ccc(Nc2ncc3c(n2)CC(C)CC3=O)c(C)c1 (stereo not shown),11.8
21,CC(=O)Nc1ccc(S(=O)(=O)N2CCN(C(=O)N3CCCCCC3)CC2)cc1,11
22,CCOC(=O)C(CC)n1cnc2c(nnn2-c2ccccc2)c1=O (stereo not shown),1.66

row,Structure (SMILES),"hERG current change (%, negative = inhibition) at 1uM [%]"
1,CCOc1ccc(-n2nnnc2SCC(=O)NC2CCCC2)cc1,1.14
2,O=C(NCC1CCCO1)c1onc(CSc2ccc(F)c(F)c2)c1C(=O)O (stereo not shown),12.4
3,COc1cc(C(=O)N/N=C/c2coc3ccc(Cl)cc3c2=O)ccc1O,4.54
4,CCOC(=O)CSc1nnc(-c2cccs2)n1-c1ccccc1,-5.75
5,Cc1c(CN2CCC(n3nccc3NC(=O)CCc3ccccc3)CC2)cnn1C,22.5
6,CCC(=O)N1CCc2cc(S(=O)(=O)CCC(=O)N3CCN(c4ccccc4)CC3)ccc21,11.8
7,CSc1nnc(-c2ccc(O)cc2)n1C,-1.62
8,CN(C(=O)c1ccc(S(=O)(=O)N2CCCC2)cc1)C1CCCCC1,14.4
9,CSc1ccccc1NC(=O)COC(=O)CCc1ccccc1,18.8
10,O=C(CSc1nc(C2CC2)nc2ccccc12)Nc1ccccc1Cl,20.5
11,Cc1cc(C)cc(Nc2c(F)c(F)c(F)c(F)c2C(=O)O)c1,13.9
12,O=C(C1CCCN(S(=O)(=O)c2cc(Cl)ccc2Cl)C1)N1CCCC1 (stereo not shown),6.82
13,CN1CCN(CC(=O)Nc2ccc(Cl)cc2Cl)CC1,-46.1
14,C=CCn1c(SCC(C)=O)nc2scc(-c3ccco3)c2c1=O,12.8
15,O=C(c1cccs1)N(Cc1ccc(F)cc1)C1CCS(=O)(=O)C1 (stereo not shown),-9.7
16,O=C(CSc1nnc(-c2cccs2)n1-c1cccc(Cl)c1)c1cccc2c1OCCO2,18
17,CCOc1ccc(NC(=O)c2cc(S(=O)(=O)N3CCOCC3)cs2)cc1,18.7
18,CN1CCN(c2ccccc2NC(=O)COc2ccc(Cl)cc2)CC1,-6.49
19,Cc1ccc(NC(=O)CSc2ncccc2C(=O)Oc2cccc([N+](=O)[O-])c2)cc1Cl,9.5
20,COc1ccc(NC(=O)c2nc[nH]c2C(=O)N[C@@H](C)c2ccccc2)cc1,7.34
21,O=C1CCC(C(=O)N2CCCC(C(=O)c3ccc4ccccc4c3)C2)=NN1 (stereo not shown),5.13
22,C/C(=N\NC(=O)OC(C)(C)C)c1ccc(-n2ccnc2)cc1,-3.81

row,Structure (SMILES),"hERG current change (%, negative = inhibition) at 1uM [%]"
1,O=C(NCCCc1ccc(F)cc1)C1CCC(=O)N(CCCN2CCCC2=O)C1 (stereo not shown),13.1
2,CCN(CC)S(=O)(=O)c1ccc(/C=C/C(=O)Nc2c(C)n(C)n(-c3ccccc3)c2=O)cc1,5.28
3,CCOc1cc(-c2nnc(NC(=O)c3ccco3)o2)cc(OCC)c1OCC,11.1
4,COc1c(C(CC(C)C)OC(C)=O)ccc2c1C(=O)OCc1cc(C)cc(O)c1O2 (stereo not shown),7.47
5,CC(=O)Nc1ccc(NS(=O)(=O)c2ccc3c(c2)NC(=O)CC(=O)N3)cc1,-2.74
6,Cl.O=C(O)c1ccc(CNCc2cccc(Cl)c2Cl)cc1,2.5
7,O=C1CC(c2cccc(Cl)c2)Cc2nc(N3CCOCC3)ncc21 (stereo not shown),11.3
8,CCCCC(=O)NC(=S)Nc1cccc(NC(=O)c2ccco2)c1,8.58
9,O=C(COc1ccccc1[N+](=O)[O-])Nc1cc(C(=O)O)cc(C(=O)O)c1,16
10,COc1ccc(CNC(=O)Cn2c(=O)n(CC(=O)N3CCCCC3)c(=O)c3sccc32)cc1,11.6
11,O=C(NCCc1ccccc1)C(=O)NCc1ccncc1,-3.68
12,O=C1CCN(Cc2ccc([N+](=O)[O-])cc2)CCN1CCO,5.29
13,COc1ccc(NC(=O)c2ccc(Oc3ncccn3)cc2)cc1,9.22
14,O=C(NCc1nnc2c3ccccc3c(-c3ccccc3)nn12)c1ccccc1Cl,12
15,CCC(C)(C)C1CCc2[nH]nc(C(=O)O)c2C1 (stereo not shown),11.9
16,COc1ccc(-c2cc([C@H]3[C@@H]4C=CCC[C@@]4(C)C(=O)N3Cc3ccccc3)ccc2F)cc1OC,14.2
17,CCN1CCN(CCOc2ccccc2OCc2ccccc2)CC1.O=C(O)C(=O)O,-32.7
18,Cc1nc(Cl)c(C#N)c2c1CCCC2,2.59
19,Cc1ccn2cc(CCNC(=O)C3CC=CCC3C(=O)O)nc2c1 (stereo not shown),5.6
20,CCN(CC)CC(=O)Nc1nn(-c2ccccc2)nc1C(N)=O,7.18
21,COc1ccc(CCNC(=O)COc2ncnc3ccccc23)cc1OC,9.68
22,CN(CC(=O)Nc1cccc(F)c1)CC(=O)N1CCCCC1,7.19
